Source: PubChem BioAssay (NCI)
Several values for one entry are separate records, joined by “and”; a condition that tells them apart may be missing. Equal values may be shown once.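 Following 48 hours of exposure in 96-well plates, responses at five concentrations were used to interpolate endpoints linearly. The concentration for 50% growth inhibition is given as GI50. At the TGI there is no net growth.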

These compounds were tested on NCI-H322M lung (assay: DTP human tumour cell line panel, 48 h).

SMILES	GI50	TGI [µM]
CCOC(=O)c1c(C)n([O-])c2cc(F)c(F)cc2[n+]1=O	2.03 µM	4.19
COc1cccc2nc(Nc3cccc(NC(=O)c4ccc(N5CCN(C)CC5)c(C(F)(F)F)c4)c3)ccc12	1.65 µM	6.15
CC1(C)N=C(C(N)=O)c2ncn(Cc3ccccc3)c2N1	–	> 100
CC1CC(C)(O)C2C3(C)CCCC2(COC3=O)C12CCC1(CCOC1=O)O2 (configuration not stated)	–	> 250
COC(C)=NCCC1=CCCCC1	–	> 100
O=C1/C(=C/c2ccc(Cl)cc2)CN(Cc2cn(CCCNc3ccnc4cc(Cl)ccc34)nn2)C/C1=C\c1ccc(Cl)cc1	1.34 µM	2.83
O=C(c1ccccc1)c1ccc(N2C(=O)/C(=C/c3ccccc3S)N=C2c2ccccc2)c(N2C(=O)/C(=C/c3ccccc3S)N=C2c2ccccc2)c1	–	> 100
CCCCCCC(=O)OC[n+]1ccc(-c2c(COC(=O)NC(C)C)c(COC(=O)NC(C)C)c3n2CCC3)cc1	–	> 100
Nc1[nH]c(=O)nc2c1cnn2COCCO	–	> 100
CCc1ccc(Oc2c(-c3ccc(OCCc4cccc(C(F)(F)F)c4)cc3O)n[nH]c2C(F)(F)F)cc1	6.06 µM	12.3
N#CCCC(C#N)(C#N)CCC#N	–	> 100
C=C(C(=O)c1ccccc1)C(NC(C)(C)C)c1ccccc1 (configuration not stated)	5.22 µM	18.5
COP12(OC)NC(=O)OC1(C(F)(F)F)c1ccccc1O2 (configuration not stated)	–	> 100
Cc1nc2ccc(-n3ncc(C(=O)c4cc5ccccc5[nH]4)c3N)cc2[nH]1	30.9 µM	> 100
CC1(C=O)CC(CCc2ccccc2)NC1Cc1ccc(O)cc1 (configuration not stated)	–	32.5
CC(C)(C)N1CC1CNC(=O)C(=O)NCC1CN1C(C)(C)C (configuration not stated)	–	> 14.2
COc1ccc(COCC[C@H](C)OC2OC(CO[Si](C)(C)C(C)(C)C)C(O)C(O)C2O)cc1 (some centres not stated)	–	> 100
CCC1=CC(OCc2ccccc2)C(CCN(Cc2ccccc2)C(=O)OCc2ccccc2)C1 (configuration not stated)	–	47.4
CC(C)c1cnc(-c2cc(Cl)ccc2F)cc1Nc1ccncc1C(=O)NC(CO)CO	11 µM	37.1
Cc1n[nH]c(=O)n1/N=C/c1ccco1	–	> 100
CCOC(=O)/C(C1=NCCN1C)=C(\O)c1ccccc1	–	> 100
C[n+]1cccc(NC(=O)c2ccc3ccc4ccc(C(=O)Nc5ccc[n+](C)c5)nc4c3n2)c1	2.15 µM	> 47.4
CCOC(=O)/C(=C\c1c[nH]c2ccccc12)P(=O)(OCC)OCC	–	> 100

SMILES	GI50	TGI [µM]
C=CC(C)(C)NC(C(=O)N1CCC[C@H]1c1nc(-c2nc(C(=O)OCC=C(C)C)c(C)o2)c(C)o1)C(C)C (some centres not stated)	–	> 100
Nc1ncnc2c1ccn2CC#CCO	–	> 100
O=C1c2cc3c(cc2[C@@H]2C(O)[C@H]4O[C@H]4C4CCN1C42)OCO3 (some centres not stated)	–	> 37.5
COc1ccc(OC)c(C2=C(c3cn(C)c4ccccc34)C(=O)NC2=O)c1	> 25 µM	> 25
NC1=NC(c2ccc(Cl)cc2)=CC(c2cccc(Cl)c2)S1 (configuration not stated)	–	> 100
COc1ccc2nc3cc([N+](=O)[O-])ccc3c(NCCO)c2c1	1.86 µM	10.1
CO/N=C(/C)COc1ccc2c(c1)oc(=O)c1cc(OC)ccc12	> 100 µM	> 100
CCn1c2ccccc2c2ccc(C3C4C(=O)N(c5cccc6ccccc56)C(=O)C4ON3C(C(N)=O)c3ccccc3)cc21 (configuration not stated)	–	> 25
CCCCCc1cc(/C=C2/N=C(c3ccc[nH]3)C=C2OC)[nH]c1C	–	1.29
NC(N)=N/N=C/c1c(-c2ccc(Cl)c([N+](=O)[O-])c2)nc2sccn12	–	2.95
O=C1CCC(=O)c2ccccc2N1	–	> 100
Cc1cc(NS(=O)(=O)c2ccc(NO)cc2)no1	–	> 100
Cc1c(-c2coc(-c3ccc([N+](=O)[O-])cc3)n2)c(=O)n(-c2ccccc2)n1C	–	> 100
COc1cc(/C=C2\CC3C4CCC5=CC(=O)CC[C@]5(C)C4CC[C@]3(C)C2=O)ccc1OCCN1CCCC1 (some centres not stated)	0.633 µM	2.38
C=C1N(C)c2ccc(S(=O)(=O)c3ccc4c(c3)C(C)(C)C(=C)N4C)cc2C1(C)C	–	> 100
C1=NN2C(c3ccccc3)=NOC2C2C(c3ccccc3)=NOC12 (configuration not stated)	–	> 100
O=c1[nH]c(=O)n([C@H]2C[C@@H](CO)[C@@H](O)C2)cc1I	–	> 100
c1ccc2cc(C3NCCc4[nH]cnc43)ccc2c1 (configuration not stated)	–	> 100
CN(C)CCC(=O)[C@@]1(O)CC[C@H]2[C@@H]3CC=C4C[C@@H](O)CC[C@]4(C)[C@H]3CC[C@@]21C	–	79
CCC1(c2ccc(OC)c(OC)c2)CCN(S(=O)(=O)c2ccc(C)cc2)C1 (configuration not stated)	–	> 100
C1CSCCSCCSCCSCCS1	–	> 100
O=S(=O)(O)c1c(Cl)c(Cl)c(O)c2ncccc12	–	36.6
CC1(C)CC[C@]23CC[C@]4(C)[C@H](CC[C@@H]5[C@@]6(C)CCCNC(C)(C)[C@@H]6CC[C@]54C)[C@H]2[C@H]1OC3	1.64 µM	3.03

SMILES	GI50	TGI [µM]
CCCCCN1C(=O)C(Cc2ccccc2)N=C(c2ccc(O)cc2)c2cc(Cl)ccc21 (configuration not stated)	–	30.4
Cc1ccc(S(=O)(=O)c2ccc(C)cc2[N+](=O)[O-])c([N+](=O)[O-])c1	–	> 100
O=C(c1ccccc1)n1cc(/C=C/[N+](=O)[O-])c2ccccc21	–	> 100
CC(=O)Oc1ccc2c(c1)[nH]c1c3ccc(OC(C)=O)cc3oc(=O)c21	–	72
NC(=O)C1=C(O)[C@@]2(O)C(=O)C3=C(O)c4c(O)cccc4CC3C[C@H]2CC1=O (some centres not stated)	–	13.1
O=C(O)c1ccc(CSc2nc3ccccc3[nH]2)cc1	> 100 µM	> 100
CN1C(=O)C(N=Nc2ccc([N+](=O)[O-])cc2)SC1=S (configuration not stated)	1.67 µM and 14.7 µM	–
Cc1cn(CC(=S)NCCc2c[nH]c3ccccc23)c(=O)[nH]c1=O	–	> 100
Nc1ccc(Oc2ccc(C34CC5C6CC7(c8ccc(Oc9ccc(N)cc9)cc8)CC5C(C3)C(C7)C6C4)cc2)cc1	–	> 100
O=c1cccccc1[O-].O=c1cccccc1[O-].O=c1cccccc1[O-].[Nd+3]	–	> 100
CC(=O)OC1C(O)C(C)OC(OC2C(OC(=O)C3CCC4C(C3)OC3(CC(OC(=O)/C=C/c5ccccc5)C(C)CO3)C43CO3)OC(C)C(O)C2OC(C)=O)C1O (configuration not stated)	–	0.176
O=C(O)CN1C(=O)OC(c2ccccc2)C1=O (configuration not stated)	–	> 100
C[C@@]12CC[C@@H](O)C[C@@H]1CC[C@H]1[C@H]2CC[C@@]2(C)[C@H](c3ccc(=O)oc3)CC[C@@]12O	< 0.01 µM	0.0649
Cc1nc(C)c(N2CCN(Cc3ccccc3)CC2)c(=O)[nH]1	–	> 100
NC(CCc1nc(-c2cccc([N+](=O)[O-])c2)cs1)C(=O)O (configuration not stated)	–	> 100
Cc1csc2nc(-c3cc([N+](=O)[O-])c(Cl)cc3Cl)c(/C=N/N=C(N)N)n12	–	30
CC(C)CC(N)C(=O)NC(CNC(CCC(N)=O)C(=O)NC(CC(C)C)C(=O)NC(CC(C)C)C(=O)O)Cc1ccc2ccccc2c1 (configuration not stated)	–	> 10
CC(=O)[O-].CC(=O)[O-].O=C([CH-]C(=O)c1ccccc1)c1ccccc1.[Nd+3].[OH3+]	16.4 µM	70.2
COc1cccc(C(=O)NNc2nc(Cl)nc(N3CCN(C(c4ccccc4)c4ccccc4)CC3)n2)c1	3.74 µM	17.4
COc1ccc2nc3c4c(nccc4c2c1)-c1ncccc1C3=O	–	0.473
COC(=O)C(=O)C(C(=O)OC)C(=O)C(=O)Nc1cc(Cl)c(C)cc1S(=O)(=O)O (configuration not stated)	–	> 100
Nc1nc2ccc(CNc3ccc(C(=O)NC(CC(=O)O)C(=O)O)cc3)cc2c(=O)[nH]1 (configuration not stated)	1.85 µM	> 100
CC1(C)CC(=O)c2c(-c3ccc(Cl)cc3)c(C#N)c(=S)n(C3OC(CO)C(O)C(O)C3O)c2C1 (configuration not stated)	–	> 100
